Experimental data published in PubChem BioAssay (NCATS).
Where “and” joins values, the source holds several entries; their conditions need not be identical. Equal entries are not always repeated. The shares of active, inactive and inconclusive entries below differ from those in the screen. Potencies of inconclusive entries are doubtful fits and often do not repeat. Calls of active or inactive are those of the source. Calls come from the whole dose curve; as a rule, active = well fitted cell-killing curve with a large enough effect; inconclusive = small, poorly fitted or top-dose-only effect, or effect the other way; inactive = flat fitted curve, though single readings scatter.

How the values were obtained:
Assay in all cases: Primary qHTS to identify gynecologic anti-cancer compounds using libraries of approved drugs and bioactive compounds (AID 1345084); note: nearly all actives have a fitted effect of over 55% in size
Hek293T = conditions: Gynecologic cancer cell panel viability, ATPlite luminescence, 48 h, control line for the selectivity index; series mostly up to 57.5 µM
How it was run: (§1)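 Cells, 1,000 per well, plated 16 h, then exposed 48 h at 37 C to compounds. Viability by ATPlite luminescence after 15 min at room temperature.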

JEG-3 = conditions: Gynecologic cancer cell panel viability, ATPlite luminescence, 48 h; series mostly up to 57.5 µM
How it was run: as §1

PA-1 = conditions: Gynecologic cancer cell panel viability, ATPlite luminescence, 48 h; series mostly up to 57.5 µM
How it was run: as §1

SKOV3 = conditions: Gynecologic cancer cell panel viability, ATPlite luminescence, 48 h; series mostly up to 57.5 µM
How it was run: as §1

Tov112D = conditions: Gynecologic cancer cell panel viability, ATPlite luminescence, 48 h; series mostly up to 57.5 µM
How it was run: as §1

Tov-21-G = conditions: Gynecologic cancer cell panel viability, ATPlite luminescence, 48 h; series mostly up to 57.5 µM
How it was run: as §1

OV90 = conditions: Gynecologic cancer cell panel viability, ATPlite luminescence, 48 h; series mostly up to 57.5 µM
How it was run: as §1
Potency is the fitted concentration of half-maximal effect; tags give direction and shape of the fitted curve.

Row | Compound | Potency (Hek293T) | Potency (JEG-3) | Potency (PA-1) | Potency (SKOV3) | Potency (Tov112D) | Potency (Tov-21-G) | Potency (OV90)
1 | C[C@H]1O[C@@H](O[C@H]2CC[C@@]3(C)[C@H](CC[C@@H]4[C@@H]3C[C@@H](O)[C@]3(C)[C@@H](C5=CC(=O)OC5)CC[C@]43O)C2)C[C@H](O)[C@@H]1O[C@H]1C[C@H](O)[C@H](O[C@H]2C[C@H](O)[C@H](O[C@@H]3O[C@H](CO)[C@@H](O)[C@H](O)[C@H]3O)[C@@H](C)O2)[C@@H](C)O1 | active: 0.355 µM | inconclusive: 1.58 µM [cytotoxic, single point] | active: 316 nM | active: 0.282 µM | active: 0.316 µM |  | 
2 | CN(Cc1cnc2nc(N)nc(N)c2n1)c1ccc(C(=O)N[C@@H](CCC(=O)O)C(=O)O)cc1 | active: 0.158 µM | active: 0.316 µM | inconclusive: 100 nM |  | inconclusive: 0.1 µM | active: 0.1 µM | 
3 | CC[C@]1(O)C[C@@H]2CN(CCc3c([nH]c4ccccc34)[C@@](C(=O)OC)(c3cc4c(cc3OC)N(C)[C@H]3[C@@](O)(C(=O)OC)[C@H](OC(C)=O)[C@]5(CC)C=CCN6CC[C@]43[C@@H]65)C2)C1 | inconclusive: 1.41 µM [cytotoxic, full curve] and inconclusive: 794 nM [cytotoxic, full curve] | inconclusive: 1.41 µM [cytotoxic, full curve, poor fit] and active: 631 nM and inconclusive: 1.58 µM [cytotoxic, full curve] | active: 316 nM and inconclusive: 316 nM [cytotoxic, full curve, poor fit] and active: 355 nM | inconclusive: 2 µM [cytotoxic, partial curve, poor fit] and inconclusive: 158 nM [cytotoxic, full curve, poor fit] and inconclusive: 224 nM [cytotoxic, full curve, poor fit] | active: 158 nM and active: 316 nM | active: 316 nM and active: 447 nM and active: 631 nM | 
4 | CCCCC(CC)CN=C(N)NC(N)=NCCCCCCN=C(N)NC(N)=NCC(CC)CCCC (stereo not given) | inconclusive: 20 µM [cytotoxic, partial curve, poor fit] | inconclusive: 39.8 µM [cytotoxic, single point] |  | inconclusive: 20 µM [cytotoxic, partial curve, poor fit] | inconclusive: 39.8 µM [cytotoxic, single point] | active: 17.8 µM | active: 20 µM
5 | NC1(C(=O)N[C@@H](CCO)c2ccc(Cl)cc2)CCN(c2ncnc3[nH]ccc23)CC1 | inconclusive: 1.78 µM [cytotoxic, full curve, poor fit] | inconclusive: 0.794 µM [cytotoxic, full curve] | inconclusive: 15800 nM [cytotoxic, partial curve, poor fit] | inconclusive: 28.2 µM [cytotoxic, single point] |  |  | 
6 | COc1ccc(OC)c(C(O)CNC(=O)CN)c1 (stereo not given) | inconclusive: 39.8 µM [cytotoxic, single point] |  |  |  |  |  | inactive
7 | CCCCCCCCCCCCCC[N+](C)(C)C | inconclusive: 14.1 µM [cytotoxic, partial curve, poor fit] | inconclusive: 39.8 µM [cytotoxic, single point] |  | inconclusive: 8.91 µM [cytotoxic, partial curve, poor fit] | active: 14.1 µM | active: 5.62 µM | inconclusive: 12.6 µM [cytotoxic, partial curve, poor fit]
8 | O[C@@H](c1cc(C(F)(F)F)nc2c(C(F)(F)F)cccc12)[C@H]1CCCCN1 | inconclusive: 31.6 µM [cytotoxic, partial curve, poor fit] | inconclusive: 31.6 µM [cytotoxic, single point] | inconclusive: 39800 nM [cytotoxic, single point] | active: 25.1 µM | inconclusive: 39.8 µM [cytotoxic, single point] | inconclusive: 28.2 µM [cytotoxic, single point] | 
9 | COC(=O)Nc1nc2ccc(C(=O)c3cccs3)cc2[nH]1 | inconclusive: 0.282 µM [cytotoxic, full curve] | active: 0.355 µM | active: 224 nM | inconclusive: 0.126 µM [cytotoxic, full curve, poor fit] |  | inconclusive: 0.282 µM [cytotoxic, full curve, poor fit] | 
